Measured values published in article PMC10726135.
This is one part of the list. At the low end of the ranking the order means little. Measured with an extract: partners may take part in the binding.

Target: T1, HNF4alpha8 (COS-7 nuclear extract) (UniProt P41235-5)
T1 sequence: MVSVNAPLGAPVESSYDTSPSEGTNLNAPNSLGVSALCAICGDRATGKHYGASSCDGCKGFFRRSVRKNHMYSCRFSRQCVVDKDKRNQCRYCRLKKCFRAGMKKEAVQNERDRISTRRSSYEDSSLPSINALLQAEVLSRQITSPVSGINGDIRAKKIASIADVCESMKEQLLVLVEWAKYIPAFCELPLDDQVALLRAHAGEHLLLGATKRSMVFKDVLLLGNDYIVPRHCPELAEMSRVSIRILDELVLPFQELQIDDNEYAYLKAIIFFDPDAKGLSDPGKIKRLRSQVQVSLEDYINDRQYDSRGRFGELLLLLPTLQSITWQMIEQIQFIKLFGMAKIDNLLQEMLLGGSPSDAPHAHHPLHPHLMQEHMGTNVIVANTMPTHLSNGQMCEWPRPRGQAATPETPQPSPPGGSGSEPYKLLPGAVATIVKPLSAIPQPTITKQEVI
Assay: protein-binding microarray
Details: COS-7 nuclear extract on double-stranded Agilent 4x180k PBM; binding buffer, salt, pH and temperature not given; high values mean tight binding; double strand, one strand shown; sequences stand for … in …GCCTAGGGAGATTAGAGTATCGGTCGA

Sequence | binding signal (log2 normalized intensity)
CCCAAGATGGATTGGGTCCACACATTCCTA | 0.829
TCTGATTGGTTGGAGAAAGCAGCCAACCAG | -1.29
CAGTATCAAAGTCCCCAGATAAGACAAAGT | 2.22
TCAGCCCACTTCCTACCATCAAAGGTTGTC | 0.655
CAGTAACCTAAGTCAGGAAACTGACTCAAC | -1.4
GAGAAGACATAGTTTTTGCCCTTAAGCAGC | 1.93
GGGGCCCAGGTCGAAGTTTATGTTTACTGT | 1.26
CTTTTGGAATCCCCATCTCACCATAAACTC | 1.78
CAAAGATTGTGAGACAAGAGAAGAGAAAAA | -1.29
TTAAGACTCAAAGTTCAGTCGAATTTGGTT | 2.33
GGTGAACTTTGAGACTATCCTTGGACCGCA | 3.32
CTCTGGGGGAACCTCTGGTCAAATTCCAAC | 3.23
CTTTGCCCTTTGGGAAGGGGCAAAAGAGAG | 2.52
TGAAAAGATAGCTTGAGGCCAGCTCATAGG | -1.18
CACATTCGAAGTTTTGCTCCTTTGAGCACT | 1.18
GGACAAAGTTCCCCGGGCAGCTGTGTTTGC | 0.702
CTGAGAGACTTTATCCGTATAACAAGACAG | -1.2
GAAAGAGGGTGAAAGTACAGTGATGTTTGT | 1.86
CCTTTTTCTGTTCAATGGTGCTTTTGATAT | 2.23
GTGCCATGCCAAAGAAGCAAAGGTTGGCTA | 0.147
TCCCAAGTAGCTCATTTATTATTTGTCTGG | 1.54
ACACACCGTTAGCCAATATTTGCAAGGCTG | -1.2
GATCATAAATGCCTCCCCCTCTTTATCTCC | 3.63
GACATAAATCACATTGTTAGCATAGCCTAT | -0.813

Sequence | binding signal (log2 normalized intensity)
GCTCAGTAAATTATCTTGATGGTTAAAGTC | 0.961
GCCAATTAGAAGGCTCCCTGCTGCGGAGAG | -1.23
CCTGAAATTGAGATGAGATGGTCAAAGGTT | 5.38
GCAGCGGGCAGCCCGTGTGGGCGGGTGCAG | -1.31
ACCATGAGAGGGTTAAAAACCAGAATGACA | -1.27
GCAGATGAAGTCCAAAGGCCATCTGCTGGA | 3.73
GTTATCAACCTTATCAGCAGGACACCAAAC | -1.21
GGATTAAAGGATCAACTTTCAGAAGGGGAC | -1.26
TGCTATTAAGCACTAGAAAGTCTTGAAGTC | -1.01
AGATGAGCTCTGAACTAACAATTCTTTCTG | -1.36
TGGTGAGCAGGTTAATTATAATCGCAGAAT | -1.09
CACCCTCAAATCAGTGAAGGCCTCTGATGA | -0.925
TGTTTGCATAAAGTTAAACTTTAAATTTGC | -0.158
AAGTACACACTGTACCCGTCCACCTTTGGA | 3.27
TCCCCAGATTCCAGGGGAGGGTAAGAGTCC | 2.84
TTCTACTCTCCCCAGTTCAAAGGTTAAGAC | 6.04
AAGGTTCCAGGGAACTGTCCACCAAGGAGG | -1.44
CACTAAAGTTACAAGATCTTTGGACTATTG | 4.2
GTGCTAGAGAAAGGACCAGTTGAGTGCAAA | -1.18
CCGGCAGCAGCCTTGCCTTTGATGTGTCCA | 0.179
GTTTACATTCCAGGGTGAAATTCAACAGAA | -1.27
TGTACCTTTGACTATGGGCATGAAGTCAAA | 0.725
CACCCCACCCCCTATCTTGTGTAATAACGA | 3.12
TGCAGTACTATGCAATAACCAGGGAGTGGC | -1.35

Sequence | binding signal (log2 normalized intensity)
CTGCCAAAGGTAAAAAATGCAAGTTTATCG | 0.0715
AAGCCTTTCTGAGGAGCTAACAGTAAAACT | -1.37
GATGGGCAACTGTCCGAGTTGTCAAAAGGG | -1.3
GTAAGCACAAAGTACAGCTTTTTGTTTGTG | 2.02
TTGAAGCTCTGGTTCAAACAAGGCCAAAGT | 2.22
AGTTACGTAATGTGTCCCCACATCTGTGAA | 2.08
CTTCTCATCTTTATCATGTGGTATTAACAT | 2.08
GGGACCTGAGAACATGTAATCATTTGGGAC | -0.395
GCAAACTCTAGCTGTCCTCCTCTGAAGGAA | -1.35
ACGTCATTTTGTCACCTACATGTGAGAGAG | 0.794
CCAGCTAAAACTGCAGATTGACTCAGGCAT | -1.42
GTTCACAATAAGAGGGTATACTATTTGCTA | -1.33
CCTAAGCCCTGCTCAGGGAATGTGGGTCCA | 2.92
AGCATGTTTGGTGACCCGTGACCCTCAGGA | 3.82
CGCATGCATAACCAAACAGAGAGAAAGCAG | -1.19
TACCTGTTTGCAAGCCCAAAGCCCCCAGAG | 3.36
GGCCCAGAGCACAACCTTTGGCCGTGCATG | 3.61
ATCCTCAGGGTTCATAGATGATAGTGATAA | 0.986
GGCTTTTGCAGTCACTCTCTAGAATGAGCC | -1.22
CAGGATTCTTGCTACAACTGGACTAGACAG | 0.371
TGACCTGCAATGAAAGTCCACTTGTCTGGC | 2.29
TTGCCCACCCCCCAAGTAGAGAGCAATTAT | 4
TAGAAGAAAGCTTCATAGTGGTTTGACTTT | 1.67
TACAAAACCCCTTATCAGGTAGAACATTGC | 0.929

Sequence | binding signal (log2 normalized intensity)
CTGGGAAGGCTCGTTCTCGCGAGAGTTCAG | 0.971
TTAGAGGCTCAGGTAAAGGCATGCTTGGCA | -1.51
AGTATTCATTCCCCTAGTATATTGGCTTGG | 1.9
GAACCCAGACTGCATTTTCATCTTGCCTTT | 0.725
TGTGCTATTTTTGGCTTGGTTCCACATCAG | 0.97
GACCCAGGAGCCTTCCGGAGGCTCTGCTGA | -1.29
GAAACTAAAGTCTGTTTGATTCCATGCTGA | 0.363
ACATAACAGGTTTGTAACTTCTTGGCCTGC | -0.168
GCTGCAGGCATGAGAGGTGCTGCATGGGCT | -1.27
CCTCCCCTAGACTTACTATTATGCCTTGAC | 0.491
TCCTTAGATAAAAAGCTTTTCTTCCCCCCT | 4.4
GGAGGGAGGAGCACAGAAGGAGAGAGAGGG | -1.27
ATTTGCGATAATAGAGATTGCTTAATGCAA | -0.917
ACATTGCATTCCACCCTGGCAGAGGAAAAA | -1
TCTTCAAGAGGCCCATCTCACACATAATGA | -1.13
GCGGGCGGACTCCGAGCCATTTTGGAGCCG | -1.34
TATAAAGGTCAACTGCCCTCTCAAATTACA | 2.25
TTTGACAAAAAATGATGAATTTTCATCCCT | -1.33
CCCCAACAAAGCTCTGCATCCTTCCCTAAG | -1.3
GCAGACTCCCTAGAAGAGTGAACCTAGTGG | 0.866
GTTTGATAGAGAAGTTTTGAAACCCTGTTC | -0.116
